# Measured values reported in the supplement of paper PMC3334620.
# In all, about 33,000 sequences were measured (“E-score (-0.5 to 0.5)”: median about -0.032, highest 2% from about 0.36 on). The list shows a part of the results.
# Biological target: T1, Sko1 (UniProt Q02100)
# T1 sequence: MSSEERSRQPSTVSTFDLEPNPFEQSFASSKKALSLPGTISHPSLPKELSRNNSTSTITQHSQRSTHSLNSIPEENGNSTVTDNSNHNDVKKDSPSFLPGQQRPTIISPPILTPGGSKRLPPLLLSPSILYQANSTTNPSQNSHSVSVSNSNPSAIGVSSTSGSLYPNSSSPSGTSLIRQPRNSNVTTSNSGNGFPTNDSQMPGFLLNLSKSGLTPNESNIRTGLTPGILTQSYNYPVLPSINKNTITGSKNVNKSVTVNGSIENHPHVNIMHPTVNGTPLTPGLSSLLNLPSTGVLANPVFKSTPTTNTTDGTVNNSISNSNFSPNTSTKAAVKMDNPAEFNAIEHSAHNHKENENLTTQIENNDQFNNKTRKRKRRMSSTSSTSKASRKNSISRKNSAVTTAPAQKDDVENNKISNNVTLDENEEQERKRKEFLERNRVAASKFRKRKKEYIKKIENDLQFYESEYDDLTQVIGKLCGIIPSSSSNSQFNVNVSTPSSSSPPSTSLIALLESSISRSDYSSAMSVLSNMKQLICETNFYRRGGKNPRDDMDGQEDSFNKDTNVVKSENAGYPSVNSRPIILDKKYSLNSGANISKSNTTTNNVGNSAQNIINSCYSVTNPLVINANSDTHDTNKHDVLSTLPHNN
# Assay: PBM E-score (8-mer binding enrichment) (E-score (-0.5 to 0.5)); higher = stronger / more preferred TF binding; most listed sequences are background and not binding sites
# Conditions: protein concentration: 200 nM; construct: GST-full length
# Method in brief: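 Universal all-10-mer Agilent arrays, double-stranded by primer extension on fresh or once-stripped slides, were probed with about 100-200 nM GST-tagged yeast transcription factors made by PURExpress. Fluorescent anti-GST detected bound protein, and masliner normalised the scans. E-scores from the Universal PBM Analysis Suite were given to each ungapped eight-base word pooled with its reverse complement.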
row,Sequence,PBM E-score
1,AGGTCGAC,-0.0775
2,CCTTCAGC,-0.119
3,CCGCGGAG,-0.101
4,CAGACATA,0.148
5,AAACGGCA,-0.0545
6,ACTAGCGA,-0.0298
7,ATACATCA,0.382
8,GTCTTCAA,0.083
9,GGGCTCAA,-0.347
10,CAGAGGTA,-0.0497
11,GATGCCGC,-0.277
12,GGATCCAC,-0.0558
13,CTAACACC,-0.143
14,CGAGCTCG,0.129
15,GGCGTAGA,0.118
16,AATTCGCA,0.0664
17,GATCACGA,0.158
18,CGCGTAGC,0.199
19,CCCTACGG,-0.232
20,GACACTAC,0.185
21,ATACTCGC,0.0175
22,CTAGAATA,0.122
23,ATCGCAAA,0.108
24,GAGCACTA,-0.128
25,GCTAATCA,0.0447

row,Sequence,PBM E-score
1,AAGATGGA,-0.132
2,AGCGTTGG,-0.018
3,GCTGCCCA,-0.295
4,TATTGCCA,-0.0948
5,GCGCTGGA,-0.19
6,CGAAGTCA,0.0315
7,ATTCGCTC,0.0906
8,GATGTTCC,-0.171
9,ACAGCTCC,0.0194
10,TACAATCA,0.156
11,AAATGTAG,0.0634
12,ATTCGTAC,0.314
13,AAGAGATA,0.0394
14,GATCGACA,-0.0848
15,AATCTTGT,0.149
16,GTCGCAGA,-0.063
17,ACCCTCCC,-0.112
18,CCATTTGA,-0.156
19,CGTGCTAA,0.152
20,CTTCAGTC,-0.0551
21,TCTTCGCA,0.112
22,AACGAAGG,-0.0456
23,TACTCCAA,-0.0998
24,ACGTCAAC,0.469
25,GATCAGGC,-0.141

row,Sequence,PBM E-score
1,ATTGAGTG,-0.0538
2,TCCAAGGA,-0.196
3,AGTCTAGA,-0.124
4,ATATCTGC,0.0709
5,ACGATAAA,0.209
6,ACGTCCCT,0.236
7,GTTGACTA,0.0586
8,ACATGTAA,0.26
9,AACTCTCT,-0.2
10,GCCTTGGA,-0.0789
11,AGAGGCTG,-0.273
12,AAAGTAGG,0.112
13,CTCAAACA,0.0238
14,TAGGCCCA,-0.255
15,ACTGCCCG,-0.212
16,ATGTGAAC,0.0666
17,AGCGCTTA,0.0816
18,ACGACAAC,0.274
19,TAAATTAA,0.0975
20,CCTTGATA,0.112
21,ATTGCACC,-0.0136
22,ATCTAGCA,-0.00638
23,GGCGCTTA,-0.323
24,ATATTAAT,0.208
25,CACCATTA,0.126

row,Sequence,PBM E-score
1,ACTGCTTA,-0.0517
2,ATATGACG,0.477
3,CATCTCGG,-0.18
4,AGAGCCAG,-0.21
5,ACCACAGA,-0.0766
6,AAATCGTC,0.245
7,AACCACCA,-0.0654
8,AACGCTTC,0.0266
9,CTAAAGAA,0.126
10,ACCGCGGG,-0.241
11,AGCCGCAT,0.15
12,ATGAAAAG,-0.116
13,CTCTAGAC,-0.155
14,ACATACTA,0.177
15,ACTACCGG,-0.265
16,GCAATGGA,0.0867
17,AAACAAGT,0.045
18,CTGGGGCC,-0.281
19,AGCCCCGC,-0.0755
20,AAGTGGCA,-0.167
21,GATGCCCC,-0.274
22,ATTGACCA,-0.0744
23,TCGCAACA,0.124
24,CTGCCTCA,-0.318
25,GATTAGCA,0.0318

row,Sequence,PBM E-score
1,GTTAAACA,0.212
2,CGCTAATA,0.192
3,ACCTGACG,0.173
4,ACCGGGTG,-0.224
5,ACCGTGAT,0.0739
6,GCACCCCC,-0.0983
7,CTGACCAA,0.0507
8,AGCAACCT,-0.00341
9,GGGGAACC,-0.27
10,TGGTCACA,0.0263
11,AGCAGTAC,-0.0546
12,CTCTCGTA,-0.057
13,ACCACGTC,0.363
14,ACCACATC,0.098
15,ATGTTGAG,0.0946
16,AACTTTGG,0.0225
17,GCAATTCC,-0.104
18,AACAGGTG,-0.15
19,ACAATACC,0.185
20,GGGGTACA,-0.176
21,CCTCAGAC,-0.208
22,CCAAATCG,-0.0738
23,AAATGCAG,-0.121
24,GCGCCATA,0.0343
25,AGTTTGCA,-0.00634

row,Sequence,PBM E-score
1,TCAGGGAA,-0.138
2,TCTTGCCA,-0.00793
3,CACAGATC,-0.0707
4,AATGGGTC,-0.271
5,CGTCGTAA,0.275
6,CCGATCCC,-0.362
7,AAGATTGG,0.0148
8,GGCACGAC,-0.0826
9,AAATTCTG,0.052
10,ACCTAGTG,0.0829
11,CAACTTCC,0.0216
12,AGAGACTA,-0.0943
13,CACAGCTC,-0.158
14,ACCTGTTC,-0.108
15,AAAGACAA,0.208
16,CATGTGGG,-0.0963
17,AACGGTTC,-0.108
18,CACAGTGA,0.0945
19,GTCAGTTA,0.112
20,CCGGCAAA,-0.188
21,GTAATAAA,0.347
22,ACACCATC,0.0405
23,AGCACAAT,0.0688
24,ATCTACTG,0.0371
25,GCACGTTA,0.274

row,Sequence,PBM E-score
1,ACCGACGT,0.376
2,CATTCACA,0.0371
3,ACTTGCTC,-0.156
4,CCCAGGCG,-0.306
5,CTCTTCTC,-0.22
6,ACCATAAT,0.129
7,CATGTTTA,0.165
8,GGAACTGA,-0.208
9,ACGGATAG,0.00602
10,ATGTAAGG,0.0982
11,CCAGAGCC,-0.215
12,GACTAATA,0.123
13,CGCTTCTC,-0.292
14,ACGGCCGA,-0.124
15,CAGCGTCG,-0.103
16,GATCTATA,0.0628
17,CTGGCCAC,-0.101
18,ACCTGTCC,-0.267
19,AGTTAGCC,-0.195
20,CAAACCCG,-0.0847
21,AGTGAACA,0.0913
22,TGGTCGAA,-0.0856
